Source: paper PMC6664820, “Novel natural and synthetic inhibitors of solute carriers SGLT1 and SGLT2” (Pharmacology Research & Perspectives, 2019)
The whole screen tested about 1,900 compounds, of which about 40 (2%) showed an effect of 50% or more. Some of the results follow.

target: human SGLT1 (hSGLT1) (human, UniProt P13866); test: primary screen, percent of control activity; higher = less effect of the substance; parameters: single well; conditions: 50 µM
Outline: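 Single-point screen at 50 µmol/L in CHO-hSGLT1 cells, with 160 µmol/L 1-NBD-glucose in glucose-free DMEM for 90 min at 37°C. Fluorescence from isopropanol extracts was calibrated, and CHO wild-type uptake was subtracted. Data are percent of uptake without compound.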

Sequence of human SGLT1 (hSGLT1) (P13866 whole entry, looked up): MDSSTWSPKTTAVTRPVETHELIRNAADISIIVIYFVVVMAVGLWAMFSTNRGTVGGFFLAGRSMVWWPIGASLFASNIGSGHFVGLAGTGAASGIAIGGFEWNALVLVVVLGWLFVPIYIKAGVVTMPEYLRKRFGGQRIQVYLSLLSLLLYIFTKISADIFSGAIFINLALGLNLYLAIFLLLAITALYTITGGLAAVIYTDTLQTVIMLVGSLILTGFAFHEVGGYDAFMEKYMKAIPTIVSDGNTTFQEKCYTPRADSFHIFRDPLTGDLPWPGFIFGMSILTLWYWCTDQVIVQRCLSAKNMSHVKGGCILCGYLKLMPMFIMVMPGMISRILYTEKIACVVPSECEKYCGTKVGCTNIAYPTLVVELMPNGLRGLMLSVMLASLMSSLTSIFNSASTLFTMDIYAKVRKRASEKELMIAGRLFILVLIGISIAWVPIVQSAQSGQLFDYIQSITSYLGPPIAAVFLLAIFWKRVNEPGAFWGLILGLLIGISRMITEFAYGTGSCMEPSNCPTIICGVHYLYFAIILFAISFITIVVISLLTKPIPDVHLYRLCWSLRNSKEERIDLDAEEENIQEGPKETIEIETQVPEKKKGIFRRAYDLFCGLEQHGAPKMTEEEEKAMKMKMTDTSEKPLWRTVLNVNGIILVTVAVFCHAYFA

Row | SMILES | NORMALIZED SGLT1 ACTIVITY (%)
1 | C/C1=C/CC(C)(C)/C=C/C/C(C)=C/CC1 | 84
2 | COc1cc(OC)c2c(=O)c(-c3ccccc3)c(C)oc2c1OC | 201
3 | OC[C@H]1O[C@@H](n2cnc3c(NCc4ccco4)ncnc32)[C@H](O)[C@@H]1O | 142
4 | CC(=O)Oc1cc(OC(C)=O)c2c(c1)O[C@H](c1ccc(OC(C)=O)c(OC(C)=O)c1)[C@H](OC(C)=O)C2 | 163
5 | CN(C)CCC(c1ccccc1)c1ccccn1.O=C(O)/C=C\C(=O)O (centres unmarked) | 82
6 | NNC(=O)c1ccncc1 | 126
7 | CNC(=O)Oc1cccc2c1OC(C)(C)O2 | 130
8 | CC(=O)O[C@@H]1c2c(ccc3ccc(=O)oc23)OC(C)(C)[C@@H]1OC(=O)CC(C)C | 51
9 | NC1(C(=O)O)CCC1 | 81
10 | CC(=O)CC1CCCCN1.Cl (centres unmarked) | 86
11 | CN(C)c1nc(N(C)C)nc(N(C)C)n1 | 103
12 | CCOC(=O)[C@H](CCc1ccccc1)N[C@@H](C)C(=O)N1Cc2ccccc2C[C@H]1C(=O)O.Cl | 124
13 | CC(=O)O[C@@H]1C[C@@]2(C)[C@H](c3ccoc3)C[C@H]3O[C@]32[C@]2(C)C(=O)C(O)=C3C(C)(C)C(=O)C=C[C@]3(C)C12 (some centres unmarked) | 104
14 | O=C(O)CCC(=O)Nc1ccc(S(=O)(=O)Nc2nccs2)cc1 | 208
15 | CC[C@@H]1/C=C/C=C/C[C@H](C)[C@@H](O)[C@](C)(O)C(=O)[C@H](C)[C@@H](O)[C@H](C)C(=O)[C@H](C)[C@@H](O)[C@H](C)/C=C/C(=O)O[C@H]2[C@@H](C)[C@@H](CC1)O[C@@]1(CC[C@@H](C)[C@@H](C[C@H](C)O)O1)[C@@H]2C | 198
16 | COc1ccc2cc3[n+](cc2c1OC)CCc1cc2c(cc1-3)OCO2.[Cl-] | 112
17 | COc1c2ccoc2nc2c(OC)c(OCC(O)C(C)(C)O)ccc12 (centres unmarked) | 168
18 | CC[C@]12CCCN3CCc4c(n(c5ccccc45)[C@@](O)(C(=O)OC)C1)[C@@H]32 | 79
19 | COC1=C(OC)C(=O)C(C/C=C(\C)CC/C=C(\C)CC/C=C(\C)CC/C=C(/C)CC/C=C(\C)CC/C=C(\C)CC/C=C(\C)CC/C=C(\C)CC/C=C(\C)CCC=C(C)C)=C(C)C1=O | 140
20 | Cc1c(NC(C)C)c(=O)n(-c2ccccc2)n1C.Cl | 124
21 | NS(=O)(=O)c1cc2c(cc1Cl)NC(C(Cl)Cl)NS2(=O)=O (centres unmarked) | 112
22 | CCCCCCCCCN1C[C@H](O)[C@@H](O)[C@H](O)[C@H]1CO | 83.2
23 | C=C(C)C1Cc2c(ccc(C(=O)O)c2O)O1 (centres unmarked) | 92

Row | SMILES | NORMALIZED SGLT1 ACTIVITY (%)
24 | Nc1ncnc2c1ncn2[C@H]1C[C@H](O)[C@@H](CO)O1 | 99
25 | CC(=O)CCCCn1c(=O)c2c(ncn2C)n(C)c1=O | 146
26 | CCc1cc(C(N)=S)ccn1 | 106
27 | CCCCC[C@H]1C(=O)O[C@H](C)[C@H](NC(=O)c2cccc(NC=O)c2O)C(=O)O[C@@H](C)[C@@H]1OC(=O)CC(C)C | 220
28 | CC1=C(/C=C/C(C)=C/C=C/C(C)=C/C=C/C=C(C)/C=C/C=C(C)/C=C/C(=O)[C@]2(C)C[C@@H](O)CC2(C)C)C(C)(C)C[C@H](O)C1 | 103
29 | CC1=C(/C=C/C(C)=C/C=C/C(C)=C/CO)C(C)(C)CCC1 | 140
30 | CC(C)[C@H](N)C(=O)OCCOCn1cnc2c(=O)[nH]c(N)nc21.Cl | 160
31 | Cl.OC1CCCCC1N1CCC(c2ccccc2)CC1 (centres unmarked) | 67
32 | CC1=C(C(=O)O)N2C(=O)[C@@H](NC(=O)[C@H](N)c3ccc(O)cc3)[C@H]2SC1 | 89
33 | OC[C@H]1O[C@@H](O[C@H]2[C@H](O)[C@@H](O)[C@@H](O)O[C@@H]2CO)[C@H](O)[C@@H](O)[C@@H]1O | 71
34 | c1ccc(N=Nc2ccccc2)cc1 | 97
35 | Cl.Cl.NCCc1c[nH]cn1 | 140
36 | C=CCc1cc(OC)c2c(c1OC)OCO2 | 104
37 | CCCCCN(CCCCC)C(=O)C(CCC(=O)[O-])NC(=O)c1ccc(Cl)c(Cl)c1.[Na+] (centres unmarked) | 314
38 | C[C@@H]1CC2C3C[C@H](F)C4=CC(=O)C=C[C@]4(C)[C@@]3(F)[C@@H](O)C[C@]2(C)[C@@]1(O)C(=O)COC(=O)C(C)(C)C (some centres unmarked) | 120
39 | CC1(C)C(=O)CC[C@@]2(C)C1C[C@@H](O)[C@@]1(C)C3=CC(=O)O[C@@H](c4ccoc4)[C@]3(C)CCC21 (some centres unmarked) | 210
40 | CCCCNc1ccc(C(=O)OCCN(C)C)cc1.Cl | 135
41 | Nc1nccs1 | 105
42 | CC(C)[C@@H]1CC[C@@H](C)C[C@H]1OC(=O)c1ccccc1 | 122
43 | CCCN(CCC)CCc1cccc2c1CC(=O)N2.Cl | 148
44 | CC(=O)Nc1ccc(OCC(O)CNC(C)C)cc1 (centres unmarked) | 105
45 | CN1CCN(C2=Nc3cc(Cl)ccc3Nc3ccccc32)CC1 | 152
46 | N[C@H](CO)Cc1ccccc1 | 96

Row | SMILES | NORMALIZED SGLT1 ACTIVITY (%)
47 | NC(=O)NO | 97
48 | Cc1cc(O)c2c(c1)C(=O)c1cc(O)cc(O)c1C2=O | 118
49 | C=C1CCC(=O)C(C)CCC2C1CC2(C)C (centres unmarked) | 75
50 | CCCn1cnc2c1c(=O)n(CCCCC(C)=O)c(=O)n2C | 121
51 | CC1=C(/C=C/C(C)=C/C=C/C(C)=C/C=C/C=C(C)/C=C/C=C(C)/C=C/C2=C(C)C(=O)C(O)CC2(C)C)C(C)(C)CC(O)C1=O (centres unmarked) | 101
52 | CCOC(=O)c1c(C)cc(O)c(C)c1O | 122
53 | CC(=O)OCC(=O)[C@@]1(O)CCC2C3CCC4=CC(=O)CC[C@]4(C)C3[C@@H](O)C[C@@]21C (some centres unmarked) | 105
54 | C[N+](C)(C)CCOP(=O)([O-])OP(=O)(O)OC[C@H]1O[C@@H](n2ccc(N)nc2=O)[C@H](O)[C@@H]1O | 90
55 | CN[C@@H]1[C@@H](O)C(OC2[C@@H](N)C[C@@H](N)[C@H](O[C@H]3O[C@H](C(C)O)[C@@H](O)[C@H](O)[C@H]3N)[C@H]2O)OC[C@]1(C)O.O=S(=O)(O)O.O=S(=O)(O)O (some centres unmarked) | 82
56 | Cc1ccc(-c2nc3ccc(C)cn3c2CC(=O)N(C)C)cc1 | 112
57 | CC1(C)O[C@@H]2[C@@H](CO[C@@]3(COS(N)(=O)=O)OC(C)(C)O[C@@H]23)O1 | 106
58 | CC(C)[N+](C)(CCOC(=O)C1c2ccccc2Oc2ccccc21)C(C)C.[Br-] | 111
59 | CC(=O)O[C@H]1CC[C@@]2(C)C(CC[C@]3(C)C2C(=O)C=C2C4[C@@H](C)[C@H](C)CC[C@]4(C(=O)O)CC[C@]23C)C1(C)C (some centres unmarked) | 37
60 | COc1ccccc1OCC(O)COC(N)=O (centres unmarked) | 106
61 | COc1ccnc(CS(=O)c2nc3cc(OC(F)F)ccc3[nH]2)c1OC (centres unmarked) | 196
62 | CC(=O)O[C@H]1C[C@@H](OC(C)=O)C(C)(C)C2C[C@@H](OC(C)=O)[C@]3(C)C(CC[C@@]4(C)[C@H](c5ccoc5)C(=O)[C@H]5O[C@]543)[C@]21C (some centres unmarked) | 129
63 | COc1ccc2c(c1)c(CC(=O)O)c(C)n2C(=O)c1ccc(Cl)cc1 | 259
64 | COc1cc2c(cc1O)CCNC2C (centres unmarked) | 142
65 | CCCCOc1ccc(CC(=O)NO)cc1 | 162
66 | Clc1ccccc1C(c1ccccc1)(c1ccccc1)n1ccnc1 | 92
67 | CCCCCCC(C)OC(=O)COc1ccc(Cl)cc1Cl (centres unmarked) | 112
68 | O=[N+]([O-])c1cc([As](=O)(O)O)ccc1O | 103
69 | CC(C(=O)O)[C@H]1CCC2C3CC=C4C[C@@H](O)CC[C@]4(C)C3CC[C@@]21C (some centres unmarked) | 140

Row | SMILES | NORMALIZED SGLT1 ACTIVITY (%)
70 | CN1C(C)(C)CCCC1(C)C.O=C(O)C(O)C(O)C(=O)O | 97
71 | CCN(CC)CCNC(=O)c1ccc(NC(C)=O)cc1.Cl | 115
72 | Cc1c(N(C)C)c(=O)n(-c2ccccc2)n1C | 96
73 | CC(=O)O[C@H]1C[C@@H](OC(C)=O)C(C)(C)C2C[C@@H](O)[C@]3(C)C(CC[C@@]4(C)[C@H](c5ccoc5)OC(=O)[C@H]5O[C@]543)[C@]21C (some centres unmarked) | 119
74 | COc1ccc(CC(=O)c2ccc(O)cc2O)cc1 | 256
75 | CC1=C(CC(=O)O)c2cc(F)ccc2/C1=C\c1ccc(S(C)=O)cc1 (centres unmarked) | 147
76 | Cc1c(NC(=O)c2cccnc2)c(=O)n(-c2ccccc2)n1C | 130
77 | CC(=O)O[C@@H]1CC2C(C)(C)[C@H](O)CC[C@]2(C)C2CC[C@@]3(C)[C@H](c4ccoc4)OC(=O)C4OC43[C@@]21C (some centres unmarked) | 104
78 | C=C1C2CC[C@@]3(C)[C@H](c4ccoc4)OC(=O)C[C@]13O[C@H]1CC(O)C(C)(C)C(CC(=O)OC)[C@@]21C (some centres unmarked) | 104
79 | CC(C)Nc1nc(Cl)nc(NC(C)C)n1 | 109
80 | CC(=O)O[C@H]1CC[C@]2(C)C3CC[C@@]4(C)C(CC5O[C@@]6(CCC(C)CO6)[C@@H](C)C54)C3CC[C@H]2C1 (some centres unmarked) | 106
81 | CCCCSP(=O)(SCCCC)SCCCC | 75
82 | Clc1ccc(C(c2ccccc2Cl)C(Cl)Cl)cc1 (centres unmarked) | 78
83 | CCCc1nc2c(C)cc(-c3nc4ccccc4n3C)cc2n1Cc1ccc(-c2ccccc2C(=O)O)cc1 | 171
84 | O=C1c2ccccc2C(=O)c2c(O)c(O)cc(O)c21 | 154
85 | CN(C)CCOC(=O)C(c1ccccc1)C1(O)CCCC1.Cl (centres unmarked) | 87
86 | COc1cc([C@@H]2c3cc4c(cc3[C@H](OC(C)=O)[C@H]3COC(=O)[C@@H]23)OCO4)cc(OC)c1OC | 105
87 | CN(C)CCOC(c1ccc(Cl)cc1)c1ccccn1.O=C(O)/C=C\C(=O)O (centres unmarked) | 63
88 | O=C(O)c1cc2ccccc2[nH]1 | 133
89 | N=C1NCCN1CC(=O)O | 123
